Data taken from article PMC4099185, “Structural Integrity of the Antigen Is a Determinant for the Induction of T-Helper Type-1 Immunity in Mice by Gene Gun Vaccines against E.coli Beta-Galactosidase” (PLoS ONE, 2014).

Columns and labels:
[1] = target: the molecule itself; assay: SEC; crude lysates in PBS of transfected BHK21 cells on a Superose-6 column; fractions coated on ELISA plates and βGal detected with a murine anti-βGal antiserum
[2] = target: the molecule itself; assay: dynamic light scattering; 1 mg/mL protein in 10 mM potassium phosphate buffer, pH 7.4; supernatant after centrifugation at 14.000 x g; DLS 802 instrument

| Protein | stoichiometry N [1] | stoichiometry N [2] |
| --- | --- | --- |
| delta-βGal, βGal with deletion of the N-terminus ([…]), expressed from pCI-delta-βGal (domain or fragment, beta-galactosidase of E. coli without […] (includes the alpha peptide); numbering according to NCBI Acc; No. YP_008570279; Methods say […] deleted; results say 40 residues deleted from the N-terminus; also called ΔβGal; ΔN; source: BHK21 cells, transfected with pCI-delta-βGal, in lysate (PBS)) not shown | 2 | – |
| recombinant 6×His-tagged N-terminally truncated delta-βGal (domain or fragment, beta-galactosidase of E. coli without […]; ORF excised from pCI-delta-βGal by NcoI/NotI and ligated into pHIS-parallel II; numbering according to NCBI Acc; No. YP_008570279; Beside the dimer the preparation holds high molecular weight aggregates (DLS, SEC); also called recombinant delta-βGal; truncated 6×HIS-tagged ΔβGal) not shown | – | 2 |
